# Source: PMC5700166
# Only a part is listed here, and it is no random draw. The list includes weakly bound sequences.
# Experiments:
# Experiment in all cases: protein-binding microarray (PBM)
# Conditions in all cases: PBM: ~300 nM protein, 6 mM HEPES pH 7.8, 80 mM KCl, 0.5 mM EDTA, 0.5 mM EGTA, 6% glycerol, 35 ng/ul poly-dIdC, 1% milk, 1 h, room temperature; Ap Aiptasia and Nv Nematostella (sea anemones) / Co Capsaspora / Aq Amphimedon (sponge) / Dm Drosophila / Hu human; RHD is the Rel homology domain; high values mean tight binding; most listed sequences are background and not binding sites; double strand, one strand shown
# GST-Ap-NF-kB RHD = target: T1, GST-Ap-NF-kB RHD (UniProt A0A913YAJ5)
# T1 sequence: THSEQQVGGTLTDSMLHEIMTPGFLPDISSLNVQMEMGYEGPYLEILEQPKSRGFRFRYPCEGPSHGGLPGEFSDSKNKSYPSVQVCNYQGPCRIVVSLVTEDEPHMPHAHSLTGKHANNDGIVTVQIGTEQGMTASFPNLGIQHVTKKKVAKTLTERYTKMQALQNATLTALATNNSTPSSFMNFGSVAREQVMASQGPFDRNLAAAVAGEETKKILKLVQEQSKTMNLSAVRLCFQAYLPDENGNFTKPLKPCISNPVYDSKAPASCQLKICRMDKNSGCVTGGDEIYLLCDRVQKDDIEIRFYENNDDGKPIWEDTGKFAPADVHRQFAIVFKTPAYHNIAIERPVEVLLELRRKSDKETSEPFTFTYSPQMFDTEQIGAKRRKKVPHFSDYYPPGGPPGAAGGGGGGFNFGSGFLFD
# [1] = target: T2, GST-Nv-NF-kB (Cys allele) (UniProt E5G601)
# T2 sequence: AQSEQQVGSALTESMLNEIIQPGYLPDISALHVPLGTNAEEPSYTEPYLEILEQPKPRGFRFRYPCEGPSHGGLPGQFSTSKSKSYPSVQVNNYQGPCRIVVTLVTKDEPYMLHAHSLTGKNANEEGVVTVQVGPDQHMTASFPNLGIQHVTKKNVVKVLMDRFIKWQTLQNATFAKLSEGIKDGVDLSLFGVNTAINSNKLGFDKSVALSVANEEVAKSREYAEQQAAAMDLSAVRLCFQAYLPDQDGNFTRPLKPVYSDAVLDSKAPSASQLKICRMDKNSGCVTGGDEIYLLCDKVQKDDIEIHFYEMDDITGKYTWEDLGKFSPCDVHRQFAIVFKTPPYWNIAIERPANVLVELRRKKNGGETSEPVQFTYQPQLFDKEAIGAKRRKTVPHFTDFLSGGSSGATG
# GST-Co-NF-kB = target: T3, GST-Co-NF-kB (UniProt F1ARL5)
# T3 sequence: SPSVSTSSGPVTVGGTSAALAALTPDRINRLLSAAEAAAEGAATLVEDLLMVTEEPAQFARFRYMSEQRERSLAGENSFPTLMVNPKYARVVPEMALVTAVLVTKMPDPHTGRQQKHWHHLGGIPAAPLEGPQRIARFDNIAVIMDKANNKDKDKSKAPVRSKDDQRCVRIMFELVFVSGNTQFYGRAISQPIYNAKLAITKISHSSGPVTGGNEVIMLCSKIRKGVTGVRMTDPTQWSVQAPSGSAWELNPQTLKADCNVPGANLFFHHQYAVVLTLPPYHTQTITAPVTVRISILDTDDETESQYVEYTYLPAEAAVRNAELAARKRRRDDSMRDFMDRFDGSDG
# GST-Dm-Relish = target: T4, GST-Dm-Relish (UniProt Q94527)
# T4 sequence: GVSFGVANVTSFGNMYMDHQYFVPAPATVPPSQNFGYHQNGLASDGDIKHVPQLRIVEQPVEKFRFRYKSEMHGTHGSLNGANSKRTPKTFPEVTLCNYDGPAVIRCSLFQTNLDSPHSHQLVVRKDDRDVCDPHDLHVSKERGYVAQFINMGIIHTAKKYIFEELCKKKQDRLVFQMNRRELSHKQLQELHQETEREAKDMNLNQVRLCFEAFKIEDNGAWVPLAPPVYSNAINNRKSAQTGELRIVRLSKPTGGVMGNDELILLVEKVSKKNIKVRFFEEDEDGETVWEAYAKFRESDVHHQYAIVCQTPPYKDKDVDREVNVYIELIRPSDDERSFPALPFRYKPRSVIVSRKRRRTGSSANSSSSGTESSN
# GST-Aq-NF-kB = target: T5, GST-Aq-NF-kB (UniProt A9Y5G7)
# T5 sequence: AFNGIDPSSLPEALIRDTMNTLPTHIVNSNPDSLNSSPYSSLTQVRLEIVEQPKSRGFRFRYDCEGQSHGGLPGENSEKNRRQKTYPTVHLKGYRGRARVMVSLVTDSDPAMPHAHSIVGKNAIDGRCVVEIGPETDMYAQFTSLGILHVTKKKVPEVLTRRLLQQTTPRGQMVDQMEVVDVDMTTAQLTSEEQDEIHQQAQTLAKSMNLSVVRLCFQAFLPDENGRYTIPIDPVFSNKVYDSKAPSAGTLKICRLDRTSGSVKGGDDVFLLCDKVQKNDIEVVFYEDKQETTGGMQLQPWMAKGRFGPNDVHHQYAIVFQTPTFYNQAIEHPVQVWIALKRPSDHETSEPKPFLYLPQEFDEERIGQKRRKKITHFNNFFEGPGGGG
Sequence,binding signal (GST-Ap-NF-kB RHD) [z-score],binding signal [1] [z-score],binding signal (GST-Co-NF-kB) [z-score],binding signal (GST-Dm-Relish) [z-score],binding signal (GST-Aq-NF-kB) [z-score]
CCGATTAACATCAACAGTCGATGTGATGTTAATCGGGTCTTGATTCGCTTGACGCTGCTG,-0.448,-0.123,-0.744,-0.0548,-0.489
CCGATTAACATCAGGAAATTCGATGATGTTAATCGGGTCTTGATTCGCTTGACGCTGCTG,-0.0132,-0.2,0.168,-0.141,0.18
CCGATTAACATCACAGATCTTTGTGATGTTAATCGGGTCTTGATTCGCTTGACGCTGCTG,-1.09,-1.02,-1.22,0.368,-0.744
CCGATTAACATCAAATGCTTTTCTGATGTTAATCGGGTCTTGATTCGCTTGACGCTGCTG,-0.319,0.233,0.433,0.0837,-0.416
CCGATTAACATCAAAAATTCCAATGATGTTAATCGGGTCTTGATTCGCTTGACGCTGCTG,-0.0716,-0.181,0.122,0.906,0.956
CCGATTAACATCACTACACCAAATGATGTTAATCGGGTCTTGATTCGCTTGACGCTGCTG,0.379,-0.628,0.51,-0.0614,-0.227
CCGATTAACATCAAAACGCTAAGTGATGTTAATCGGGTCTTGATTCGCTTGACGCTGCTG,-0.491,-1,-0.312,-0.24,-0.323
CCGATTAACATCAATAGAACGCTTGATGTTAATCGGGTCTTGATTCGCTTGACGCTGCTG,-0.708,-0.594,0.386,-1.18,-0.766
CCGATTAACATCACGAATCAAACTGATGTTAATCGGGTCTTGATTCGCTTGACGCTGCTG,0.00823,0.697,0.21,-0.0274,-0.398
CCGATTAACATCATTAGTCAACCTGATGTTAATCGGGTCTTGATTCGCTTGACGCTGCTG,-0.786,-1.3,-0.516,-0.659,-0.386
CCGATTAACATCAAAGAGGTTCCTGATGTTAATCGGGTCTTGATTCGCTTGACGCTGCTG,0.29,0.207,0.0737,-0.163,-0.358
CCGATTAACATCAAAATTTCCATTGATGTTAATCGGGTCTTGATTCGCTTGACGCTGCTG,-0.22,-0.35,-0.152,0.93,0.826
CCGATTAACATCAGGAATACACATGATGTTAATCGGGTCTTGATTCGCTTGACGCTGCTG,0.00426,-0.584,-0.0779,0.919,-0.0299
CCGATTAACATCACCAAATCAGATGATGTTAATCGGGTCTTGATTCGCTTGACGCTGCTG,0.13,-0.076,0.0465,-0.00595,-0.0368
